Drawing on the supplement of paper PMC9446081, this text covers relative growth for 37 compounds.

Each structure is given as a SMILES string. The campaign covered roughly 39,000 compounds. About 220 (0.56%) showed activity. The list shows a part of the results.
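Also: static incubation at 37 °C against the wild-type strain, values averaged over two biological replicates.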

For this test, the system named is Escherichia coli K-12 BW25113. The test is described as follows: relative growth (OD600 normalised to plate interquartile mean) (fraction); higher = less growth inhibition, active = 0.2 or less. To be noted: 50 µM; LB; incubation time: overnight (16-24 h).
In the case of `Cc1cc(C(=O)Nc2cccc3c2O[C@@H](CN(C)S(=O)(=O)c2ccc(Cl)cc2)[C@@H](C)CN([C@@H](C)CO)C3=O)n(C)n1`, the relative growth was inactive: 1.
To `COc1ccc(NC(=O)Nc2ccc3c(c2)C(=O)N([C@@H](C)CO)C[C@@H](C)[C@H](CN(C)Cc2ccccc2)OCCCC[C@H](C)O3)cc1` belongs inactive: 0.965; to `C[C@H]1CN([C@@H](C)CO)C(=O)c2cccc(NS(=O)(=O)c3cn(C)cn3)c2O[C@H]1CN(C)C(=O)Nc1ccc2c(c1)OCO2`, inactive: 1.
Consider `CC(C)NC(=O)N(C)C[C@@H]1OCCCC[C@@H](C)Oc2ccc(NC(=O)Nc3ccccc3)cc2C(=O)N([C@H](C)CO)C[C@@H]1C`, for which the relative growth is inactive: 0.998.
For `C[C@@H]1CN([C@@H](C)CO)S(=O)(=O)c2ccc(-c3cncnc3)cc2O[C@@H]1CN(C)C(=O)C1CCCCC1`, the relative growth was inactive: 0.98.
Next, `Cc1ccc(S[C@]2(C(=O)NC3CC3)CC(=O)N(C3CCCCC3)[C@@H]2c2ccc(CO)cc2I)cc1`: inactive: 1.05; `C[C@@H]1CCCCO[C@H](CN(C)S(=O)(=O)c2ccc(Cl)cc2)[C@@H](C)CN([C@H](C)CO)C(=O)c2cc(NS(=O)(=O)c3cccs3)ccc2O1`: inactive: 1.02.
To `CCc1nc2ccc(C(=O)N3CCN(S(=O)(=O)CC)CC3)cn2c1N(C)Cc1ccc(Cl)cc1` belongs inactive: 0.992.
Next, `C[C@@H]1CCCCO[C@@H](CN(C)Cc2ccc(C(=O)O)cc2)[C@@H](C)CN([C@H](C)CO)C(=O)c2cc(NC(=O)Nc3ccc4c(c3)OCO4)ccc2O1`: inactive: 0.973; `C[C@@H]1CN([C@@H](C)CO)C(=O)c2cccc(NS(=O)(=O)c3cn(C)cn3)c2O[C@@H]1CN(C)S(=O)(=O)c1ccc(Cl)cc1`: inactive: 0.92.
Take `Clc1ccc(CSc2nc3ccccc3s2)cc1`: the relative growth is inactive: 1.02.
Next, `C[C@@H]1CN([C@H](C)CO)C(=O)c2cc(NC(=O)C3CCCCC3)ccc2O[C@@H]1CN(C)Cc1ccc(Cl)c(Cl)c1`: inactive: 0.987; `Cc1ccc(S(=O)(=O)N[C@@H]2CC[C@@H](CC(=O)NCc3ccc(Cl)c(Cl)c3)O[C@@H]2CO)cc1`: inactive: 1; `COCC#Cc1ccc2c(c1)O[C@H](CN(C)S(C)(=O)=O)[C@H](C)CN([C@@H](C)CO)S2(=O)=O`: inactive: 0.986.
Next, `C[C@H]1CN([C@@H](C)CO)C(=O)c2cccc(NC(=O)C3CCCCC3)c2O[C@H]1CN(C)Cc1ccc(C(=O)Nc2ccccc2N)cc1`: inactive: 1.01; `CC[C@H](C)C[C@H](C)CCCCCCCCC(=O)N[C@H]1C[C@@H](O)[C@@H](NCCN)NC(=O)[C@@H]2[C@@H](O)CCN2C(=O)[C@H]([C@H](O)CCN)NC(=O)[C@H]([C@H](O)[C@@H](O)c2ccc(O)cc2)NC(=O)[C@@H]2C[C@@H](O)CN2C(=O)[C@H]([C@@H](C)O)NC1=O`: active: 0.173; `COc1ccc2c3c(n(c2c1)C)[C@H](CO)N(C[C@]13CCN(CC1)C(=O)Nc1cccc(c1)F)C(=O)CN1CCOCC1`: inactive: 1.04.
To `Cc1nn(C)cc1NC(=O)C[C@H]1CC[C@@H]2[C@@H](COc3ccc(NC(=O)C4CCOCC4)cc3C(=O)N2C)O1` belongs inactive: 1; to `CN1C(=O)c2cc(NS(=O)(=O)c3cccc(F)c3)ccc2OC[C@@H]2O[C@@H](CC(=O)NCCN3CCCCC3)CC[C@H]21`, inactive: 1.05.
With `C[C@@H]1CN([C@H](C)CO)C(=O)c2cc(NC(=O)Cc3ccccc3)ccc2O[C@@H](C)CCCCO[C@H]1CN(C)Cc1ccc(C(F)(F)F)cc1`, the relative growth is inactive: 0.906.
To `C[C@@H]1CN([C@@H](C)CO)C(=O)c2cc(NC(=O)Nc3ccc4c(c3)OCO4)ccc2O[C@@H](C)CCCCO[C@@H]1CN(C)C(=O)Nc1ccccc1` belongs inactive: 1.04; to `CCSc1nc(-c2ccc(C)cc2)cc(C(F)(F)F)c1C#N`, inactive: 1; to `C[C@@H]1CN([C@H](C)CO)S(=O)(=O)c2ccc(C#Cc3cccnc3)cc2O[C@H]1CN(C)CC1CCCC1`, inactive: 1.02.
Next, `C[C@@H]1CN([C@H](C)CO)C(=O)c2cc(NC(=O)CCCN(C)C)ccc2O[C@@H]1CN(C)Cc1ccc(Oc2ccccc2)cc1`: inactive: 0.986; `C[C@H](CO)N1C[C@H](C)[C@@H](CN(C)Cc2ccc(C(=O)Nc3ccccc3N)cc2)Oc2ccc(NC(=O)CCC(F)(F)F)cc2CC1=O`: inactive: 1.01.
To `C[C@@H]1CN([C@H](C)CO)C(=O)c2cc(C#CC3(O)CCCC3)cnc2O[C@@H]1CN(C)S(=O)(=O)c1cccc(F)c1` belongs inactive: 0.986; to `C[C@@H](NC(=O)C[C@H]1CC[C@H](NC(=O)CN2CCOCC2)[C@@H](CO)O1)c1ccccc1`, inactive: 0.976.
For `O=C(C[C@@H]1CC[C@@H](NS(=O)(=O)c2ccccc2)[C@@H](CO)O1)NCc1ccncn1`, the relative growth was inactive: 1.01.
Next, `NC(=S)CS(=O)(=O)c1ccccn1`: inactive: 0.934; `O=C(C[C@H]1CC[C@@H]2[C@H](COC[C@@H](O)CN2S(=O)(=O)c2ccc(F)cc2)O1)NCCN1CCCCC1`: inactive: 0.995.
To `Cc1noc(C)c1S(=O)(=O)N(C)C[C@@H]1Oc2ccc(NS(C)(=O)=O)cc2CC(=O)N([C@@H](C)CO)C[C@H]1C` belongs inactive: 1.01.
To `C[C@H]1CN([C@@H](C)CO)C(=O)c2cc(NC(=O)Nc3ccc(C(F)(F)F)cc3)ccc2O[C@H]1CN(C)Cc1ccc(C(=O)O)cc1` belongs inactive: 0.954; to `Cc1nnc(NS(=O)(=O)c2ccc(N)cc2)s1`, inactive: 0.902; to `C[C@@H]1CN([C@H](C)CO)C(=O)Cc2cc(NC(=O)Nc3cccc4ccccc34)ccc2O[C@H]1CN(C)Cc1ccccc1`, inactive: 1.01.
Turning to `COc1ccc(S(=O)(=O)N(C)C[C@H]2OCCCC[C@H](C)Oc3ccc(NC(=O)Nc4c(C)noc4C)cc3C(=O)N([C@H](C)CO)C[C@H]2C)cc1`, the relative growth was inactive: 0.972.
To `COc1ccccc1NC(=O)N(C)C[C@@H]1OCc2ccccc2-c2c(n(C)c3ccccc23)C(=O)N([C@@H](C)CO)C[C@@H]1C` belongs inactive: 1.02; to `C[C@H](CO)N1C[C@H](C)[C@H](CN(C)Cc2ccc3c(c2)OCO3)Oc2c(NC(=O)c3ccncc3)cccc2C1=O`, inactive: 0.959.
